Measured values taken from article PMC11675949.
These are yes or no findings as the source states them, for the method shown. Binding seen in cells or lysates may run through a third protein. Some results given as binding are weak or reduced against the parent protein; the word gives no strength. Tags and fused reporters may be left off the sequences shown.

Chains of the proteins cited; added tags and fusions are not shown.
UniProt P49736: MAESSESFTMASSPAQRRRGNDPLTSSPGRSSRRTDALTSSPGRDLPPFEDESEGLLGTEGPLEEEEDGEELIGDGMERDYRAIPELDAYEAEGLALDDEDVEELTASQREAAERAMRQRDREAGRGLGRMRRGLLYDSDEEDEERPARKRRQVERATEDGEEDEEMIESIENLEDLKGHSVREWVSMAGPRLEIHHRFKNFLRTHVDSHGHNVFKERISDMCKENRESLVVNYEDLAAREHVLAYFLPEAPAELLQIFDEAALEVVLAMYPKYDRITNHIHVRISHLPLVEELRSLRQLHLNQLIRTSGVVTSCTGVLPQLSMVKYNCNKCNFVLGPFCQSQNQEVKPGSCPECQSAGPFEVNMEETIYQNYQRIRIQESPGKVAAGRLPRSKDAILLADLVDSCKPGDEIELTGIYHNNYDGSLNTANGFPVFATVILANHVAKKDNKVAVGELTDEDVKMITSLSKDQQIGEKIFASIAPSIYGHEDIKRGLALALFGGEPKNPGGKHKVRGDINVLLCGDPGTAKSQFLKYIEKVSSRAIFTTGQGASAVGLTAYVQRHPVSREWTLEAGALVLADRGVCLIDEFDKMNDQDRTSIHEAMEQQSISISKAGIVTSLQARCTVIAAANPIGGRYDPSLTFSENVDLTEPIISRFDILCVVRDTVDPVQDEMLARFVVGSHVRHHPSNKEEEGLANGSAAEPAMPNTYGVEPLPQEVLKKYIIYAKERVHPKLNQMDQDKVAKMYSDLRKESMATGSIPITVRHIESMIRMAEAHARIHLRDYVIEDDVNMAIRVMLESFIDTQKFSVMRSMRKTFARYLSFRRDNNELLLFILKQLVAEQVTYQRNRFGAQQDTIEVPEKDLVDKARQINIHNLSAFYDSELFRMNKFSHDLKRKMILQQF
UniProt P15927: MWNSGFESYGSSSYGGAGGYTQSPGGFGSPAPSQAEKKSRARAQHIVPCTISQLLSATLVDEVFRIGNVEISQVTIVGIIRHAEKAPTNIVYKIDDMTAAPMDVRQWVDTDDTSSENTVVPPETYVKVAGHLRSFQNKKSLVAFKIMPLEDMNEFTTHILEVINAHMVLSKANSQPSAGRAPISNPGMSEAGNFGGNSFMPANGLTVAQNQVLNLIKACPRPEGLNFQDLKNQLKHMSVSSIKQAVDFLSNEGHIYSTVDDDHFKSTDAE

T1: HROB fused to a carboxy-proximal Cerulean fluorescent protein (HROB-Cer) (human) (UniProt Q8N3J3)
T1 sequence: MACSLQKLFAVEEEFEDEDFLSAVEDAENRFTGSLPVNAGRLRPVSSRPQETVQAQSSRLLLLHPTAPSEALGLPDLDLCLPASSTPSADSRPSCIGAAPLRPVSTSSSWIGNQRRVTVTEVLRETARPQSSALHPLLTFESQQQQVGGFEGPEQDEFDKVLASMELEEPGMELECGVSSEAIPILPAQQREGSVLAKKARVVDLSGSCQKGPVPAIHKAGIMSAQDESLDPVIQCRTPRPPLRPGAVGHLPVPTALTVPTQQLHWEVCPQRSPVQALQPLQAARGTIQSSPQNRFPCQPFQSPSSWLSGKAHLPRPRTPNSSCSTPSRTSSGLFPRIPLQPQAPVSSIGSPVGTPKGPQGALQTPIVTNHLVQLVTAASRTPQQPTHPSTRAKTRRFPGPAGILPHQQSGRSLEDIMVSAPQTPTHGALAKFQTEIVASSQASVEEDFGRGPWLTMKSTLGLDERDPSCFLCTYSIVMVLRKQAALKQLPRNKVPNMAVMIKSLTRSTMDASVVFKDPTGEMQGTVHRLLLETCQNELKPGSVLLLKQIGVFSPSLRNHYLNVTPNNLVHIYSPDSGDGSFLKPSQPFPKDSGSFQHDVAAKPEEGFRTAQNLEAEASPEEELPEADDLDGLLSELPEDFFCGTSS

T2: Cdc45 fluorescent fusion protein of the FRET assays with Cdc45 fusion proteins (Supplementary Figure S11) (human) (UniProt O75419)
T2 sequence: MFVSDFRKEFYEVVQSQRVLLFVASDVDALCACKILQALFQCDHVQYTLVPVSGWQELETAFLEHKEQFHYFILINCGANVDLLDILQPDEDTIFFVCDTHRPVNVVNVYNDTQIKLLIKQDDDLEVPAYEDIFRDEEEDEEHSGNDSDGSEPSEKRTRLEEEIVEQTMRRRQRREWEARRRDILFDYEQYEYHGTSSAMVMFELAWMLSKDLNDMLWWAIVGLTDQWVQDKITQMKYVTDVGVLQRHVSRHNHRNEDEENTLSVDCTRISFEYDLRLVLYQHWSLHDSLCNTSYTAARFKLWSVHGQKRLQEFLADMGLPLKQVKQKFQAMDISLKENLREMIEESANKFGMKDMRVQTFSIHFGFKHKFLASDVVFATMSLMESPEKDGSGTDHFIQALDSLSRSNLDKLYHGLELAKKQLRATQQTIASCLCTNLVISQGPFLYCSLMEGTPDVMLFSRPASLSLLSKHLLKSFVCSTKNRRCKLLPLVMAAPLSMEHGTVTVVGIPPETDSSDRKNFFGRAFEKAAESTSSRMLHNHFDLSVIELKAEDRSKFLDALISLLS

B1: Cdc45, Venus fusion (protein, UniProt O75419 1-566)
chain: T2 sequence
B2: Mcm5, Venus fusion (protein, UniProt P33992 1-734)
chain: MSGFDDPGIFYSDSFGGDAQADEGQARKSQLQRRFKEFLRQYRVGTDRTGFTFKYRDELKRHYNLGEYWIEVEMEDLASFDEDLADYLYKQPAEHLQLLEEAAKEVADEVTRPRPSGEEVLQDIQVMLKSDASPSSIRSLKSDMMSHLVKIPGIIIAASAVRAKATRISIQCRSCRNTLTNIAMRPGLEGYALPRKCNTDQAGRPKCPLDPYFIMPDKCKCVDFQTLKLQELPDAVPHGEMPRHMQLYCDRYLCDKVVPGNRVTIMGIYSIKKFGLTTSRGRDRVGVGIRSSYIRVLGIQVDTDGSGRSFAGAVSPQEEEEFRRLAALPNVYEVISKSIAPSIFGGTDMKKAIACLLFGGSRKRLPDGLTRRGDINLLMLGDPGTAKSQLLKFVEKCSPIGVYTSGKGSSAAGLTASVMRDPSSRNFIMEGGAMVLADGGVVCIDEFDKMREDDRVAIHEAMEQQTISIAKAGITTTLNSRCSVLAAANSVFGRWDETKGEDNIDFMPTILSRFDMIFIVKDEHNEERDVMLAKHVITLHVSALTQTQAVEGEIDLAKLKKFIAYCRVKCGPRLSAEAAEKLKNRYIIMRSGARQHERDSDRRSSIPITVRQLEAIVRIAEALSKMKLQPFATEADVEEALRLFQVSTLDAALSGTLSGVEGFTSQEDQEMLSRIEKQLKRRFAIGSQVSEHSIIKDFTKQKYPEHAIHKVLQLMLRRGEIQHRMQRKVLYRLK
B3: Mcm5 fluorescent fusion protein of the FRET assays with Cdc45 fusion proteins (Supplementary Figure S11) (protein, UniProt P33992 1-734)
chain: B2 chain
B4: RecQL4, Venus fusion (protein, UniProt O94761 1-1208)
chain: MERLRDVRERLQAWERAFRRQRGRRPSQDDVEAAPEETRALYREYRTLKRTTGQAGGGLRSSESLPAAAEEAPEPRCWGPHLNRAATKSPQSTPGRSRQGSVPDYGQRLKANLKGTLQAGPALGRRPWPLGRASSKASTPKPPGTGPVPSFAEKVSDEPPQLPEPQPRPGRLQHLQASLSQRLGSLDPGWLQRCHSEVPDFLGAPKACRPDLGSEESQLLIPGESAVLGPGAGSQGPEASAFQEVSIRVGSPQPSSSGGEKRRWNEEPWESPAQVQQESSQAGPPSEGAGAVAVEEDPPGEPVQAQPPQPCSSPSNPRYHGLSPSSQARAGKAEGTAPLHIFPRLARHDRGNYVRLNMKQKHYVRGRALRSRLLRKQAWKQKWRKKGECFGGGGATVTTKESCFLNEQFDHWAAQCPRPASEEDTDAVGPEPLVPSPQPVPEVPSLDPTVLPLYSLGPSGQLAETPAEVFQALEQLGHQAFRPGQERAVMRILSGISTLLVLPTGAGKSLCYQLPALLYSRRSPCLTLVVSPLLSLMDDQVSGLPPCLKAACIHSGMTRKQRESVLQKIRAAQVHVLMLTPEALVGAGGLPPAAQLPPVAFACIDEAHCLSQWSHNFRPCYLRVCKVLRERMGVHCFLGLTATATRRTASDVAQHLAVAEEPDLHGPAPVPTNLHLSVSMDRDTDQALLTLLQGKRFQNLDSIIIYCNRREDTERIAALLRTCLHAAWVPGSGGRAPKTTAEAYHAGMCSRERRRVQRAFMQGQLRVVVATVAFGMGLDRPDVRAVLHLGLPPSFESYVQAVGRAGRDGQPAHCHLFLQPQGEDLRELRRHVHADSTDFLAVKRLVQRVFPACTCTCTRPPSEQEGAVGGERPVPKYPPQEAEQLSHQAAPGPRRVCMGHERALPIQLTVQALDMPEEAIETLLCYLELHPHHWLELLATTYTHCRLNCPGGPAQLQALAHRCPPLAVCLAQQLPEDPGQGSSSVEFDMVKLVDSMGWELASVRRALCQLQWDHEPRTGVRRGTGVLVEFSELAFHLRSPGDLTAEEKDQICDFLYGRVQARERQALARLRRTFQAFHSVAFPSCGPCLEQQDEERSTRLKDLLGRYFEEEEGQEPGGMEDAQGPEPGQARLQDWEDQVRCDIRQFLSLRPEEKFSSRAVARIFHGIGSPCYPAQVYGQDRRFWRKYLHLSFHALVGLATEELLQVAR

Columns and labels:
[1] = target: T1, HROB fused to a carboxy-proximal Cerulean fluorescent protein (HROB-Cer) (human); assay: FRET or BRET; flow cytometry FRET assay on living HEp-2 cells 18-20 h after transient co-transfection of Cerulean and Venus fusion proteins; read-out: proportion of FRET-positive cells among Cer- and Ven-double-positive cells
[2] = target: T2, Cdc45 fluorescent fusion protein of the FRET assays with Cdc45 fusion proteins (Supplementary Figure S11) (human); assay: as above

Molecule	binding [1]	binding [2]
Mcm2, Venus fusion (from UniProt P49736 1-904)	binds	
RPA32, Venus fusion (from UniProt P15927 1-270)	binds	
B1	binds	
B2	binds	
B3		binds
B4	no binding	
